# From PubChem BioAssay AID686979 (National Center for Advancing Translational Sciences (NCATS), 2013)
# The campaign covered roughly 420,000 compounds. About 50,000 (12%) were called active. The inconclusive results got no clear call from the source; some entries with a clear call stand among them for comparison. The call rests on the fitted dose curve; in most records, active means well fitted inhibition curve with a large enough effect; inconclusive means small, poorly fitted or top-dose-only effect; inactive means flat fitted curve, though single readings scatter. Potencies of inconclusive entries are left out as doubtful fits.
# Test: qHTS for Inhibitors of human tyrosyl-DNA phosphodiesterase 1 (TDP1): qHTS in cells in presence of CPT; further: nearly all actives have a fitted effect of over 55% in size
# Conditions: chicken DT40 Tdp1-/-;hTDP1 cells + 20 nM CPT, ATP luminescence, 48 h; activity change, negative = growth inhibition: at 46.2 µM (top of the series) unless noted
# Method in brief: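 Cell growth measured by CellTiter-Glo luminescence after a minimum 48 h, 37 C compound exposure with 20 nM CPT in Tdp1-knockout DT40 cells stably expressing hTDP1, seeded 400/well; qHTS titration format.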
# On the % scale 0 is the no-effect control and ±100 the full control effect; potency means the concentration at half of the fitted maximal effect; tags describe the fitted curve by direction and shape.
SMILES,Potency,"activity change, negative = growth inhibition"
COc1ccc(OCC(=O)OCc2cc(=O)n3nc(C4CC4)sc3n2)cc1,inactive,
O=C(Nc1nc2n(n1)C(c1ccc(Cl)cc1)CC(c1ccc(Cl)cc1)N2)c1ccco1 (configuration not stated),"inconclusive [inhibitor, single point]",
Nc1ccc2nc(-c3ccccc3)[nH]c2c1,"inconclusive [inhibitor, single point]",
COc1ccccc1CNC(=O)c1ccc(-c2nc(CS(=O)(=O)c3ccc(C)cc3)c(C)o2)cc1,"inconclusive [inhibitor, single point]",
CC(=O)Nc1ccc(-c2csc(NC(=O)C3CCN(S(=O)(=O)c4cccs4)CC3)n2)cc1,active: 16.4 µM,
CCC(C)NC(=O)c1ccc2nc(CCc3ccccc3)oc2c1 (configuration not stated),"inconclusive [inhibitor, single point]",
O=C(O)CNC(=O)C1COc2ccccc2O1 (configuration not stated),inactive,
CCOC(=O)[C@]12CCC=C1N(Cc1ccc3c(c1)OCO3)C(=O)[C@H](CC(=O)N1CCN(C(=O)c3ccco3)CC1)C2,"inconclusive [inhibitor, single point]",
COc1ccc(NC(=O)CN(C)C(C)C(=O)NC(=O)NC2CCCCC2)cc1 (configuration not stated),"inconclusive [inhibitor, single point]",
Cc1ccc(CNC(=O)CCCc2nnc3n(C)c(=O)c4sccc4n23)cc1,"inconclusive [inhibitor, single point]",
O=C(NCCc1ccc(Cl)cc1)c1cc(-c2ccc(Cl)cc2)n[nH]1,"inconclusive [inhibitor, single point]",
CC1CCC(NC(=O)CC(C)(C)Cc2nc3ccccc3c(=O)[nH]2)CC1 (configuration not stated),active: 16.4 µM,
COC(/C=C/Nc1ccc(Cl)cc1)=C(C#N)C#N,inactive,
COc1cc(OC)c(C(=O)Nc2cc(S(=O)(=O)N3CCOCC3)ccc2N2CCOCC2)cc1OC,"inconclusive [inhibitor, single point]",
Cc1ccc(C2CC(c3cccs3)=NN2C(=O)CSc2nc3ccccc3o2)cc1 (configuration not stated),active: 14.6 µM,
O=C(CSc1nc(-c2ccccc2)nc2c1Cc1ccccc1O2)N1CCCCC1,active: 10.3 µM,
CC1=C(C(=O)Nc2ccccc2)C(c2cccc(Cl)c2)n2nc(SCC(=O)c3ccc(C)cc3)nc2N1 (configuration not stated),inactive,
O=C(NCc1ccccc1F)C(=O)NCC(c1ccco1)S(=O)(=O)c1cccs1 (configuration not stated),"inconclusive [inhibitor, single point]",
CC(=O)n1cc(Nc2ccc([N+](=O)[O-])cc2)c2ccccc21,"inconclusive [inhibitor, single point]",
CC(C)CNC(=S)N1CCN(c2nc(-c3ccc(Cl)cc3)cs2)CC1,"inconclusive [inhibitor, partial curve, poor fit]",
Cc1oc(C(=O)O)cc1CSCc1cc(C(=O)O)c(C)o1,"inconclusive [inhibitor, partial curve]",
Cc1ccccc1CNC(=O)CC1C(=O)NCCN1CC1CCCCC1 (configuration not stated),"inconclusive [inhibitor, single point]",
O=C(N/N=C/c1ccccc1O)C1CCCC1,"inconclusive [inhibitor, single point]",
COc1ccc(CN=C2NC(=O)CC(C(=O)Nc3cc(C)cc(C)c3)S2)cc1 (configuration not stated),inactive,

SMILES,Potency,"activity change, negative = growth inhibition"
O=C1CC2(CCN(C(=O)C3CC(=O)N(c4ccc(F)cc4)C3)CC2)Oc2ccccc21 (configuration not stated),"inconclusive [inhibitor, single point]",
NC(=O)c1ccc(NC(=O)COC(=O)C23CC4CC(CC(C4)C2)C3)cc1,inactive,
CCCCNC(=O)C1(C)CCN1C(=O)c1cccc(OC(C)=O)c1C (configuration not stated),inactive,
COc1ccc2oc(C(=O)N(Cc3ccco3)Cc3cccs3)c(C)c2c1,,inconclusive: -34.9% [inhibitor]
O=C(Nc1ccc2oc(-c3ccc4ccccc4c3)nc2c1)c1ccc(Cl)c(Cl)c1,"inconclusive [inhibitor, single point]",
Cc1cccc(NC(=O)CN(c2ccc(C(C)C)cc2)S(=O)(=O)c2c(C)nn(C)c2C)n1,inactive,
O=C(CS(=O)(=O)c1ccc(Cl)cc1)Nc1nnc(-c2cccs2)o1,inactive,
CCc1c(C)nc2c(C)cccc2c1SCCC#N,,inconclusive: -31.5% [inhibitor]
CCOc1ccccc1Nc1sc(C(=O)c2ccccc2)c(N)c1S(=O)(=O)c1ccc(C)cc1,"inconclusive [inhibitor, single point]",
c1ccc(Nc2nc(N3CCCC3)nc(N3CCCC3)n2)cc1,"inconclusive [inhibitor, single point]",
FC(F)(F)c1nnc(-c2ccccc2)nc1Oc1ccccc1,inactive,
Cc1ccc(C(C(=O)NCc2ccco2)N(Cc2ccco2)C(=O)CNC(=O)c2ccco2)cc1 (configuration not stated),inactive,
Cc1nn(C)cc1S(=O)(=O)NCc1ccccc1Cl,inactive,
Cc1ccc(/C=C/C(=O)N2CCC(Cc3ccccc3)CC2)cc1,"inconclusive [inhibitor, single point]",
CC(NC(=O)c1ccc(-c2ccccc2)cc1)C(c1ccccc1)N1CCOCC1 (configuration not stated),"inconclusive [inhibitor, single point]",
CC(=O)Nc1ccc(S(=O)(=O)NN=CCCc2ccccc2)cc1,inactive,
Cc1cc(=O)oc2c3c(cc(OCC(=O)N[C@H](C(=O)O)c4ccccc4)c12)OC(C)(C)CC3,inactive,
COc1ccc(OC)c(NC(=O)c2cn(CC(C)C)c(=O)c3cc(OC)c(OC)cc23)c1,"inconclusive [inhibitor, single point]",
Cc1cc(CN(Nc2ccccc2)c2ccccc2)cc(C)n1,"inconclusive [inhibitor, single point]",
c1ccc(Nc2nnc(SCc3cccc4ccccc34)s2)cc1,"inconclusive [inhibitor, single point]",
CCN1CCCC1CN(Cc1cc2cc(OC)ccc2[nH]c1=O)C(=O)NCc1ccccc1 (configuration not stated),"inconclusive [inhibitor, single point]",
COC(=O)CSC1=C(C#N)C(=O)NC(c2ccccc2)S1 (configuration not stated),active: 2.59 µM,
Cc1ccc(Oc2nc(-c3ccccc3)ncc2S(C)(=O)=O)cc1,inactive,
CCOC(=O)c1c(CN(C)C)n(-c2ccccc2)c2cc(Br)c(OC)cc12,"inconclusive [inhibitor, single point]",

SMILES,Potency,"activity change, negative = growth inhibition"
O=C1c2ccccc2CN1CCNS(=O)(=O)c1ccc2ccccc2c1,"inconclusive [inhibitor, single point]",
Cc1ccc(CCNC(=O)c2cc3c(-c4ccccc4F)nn(C)c3s2)cc1,inactive,
COc1ccc(C(N)c2csc(Nc3ncccn3)n2)cc1 (configuration not stated),"inconclusive [inhibitor, single point]",
CCCC1(c2ccccc2)NC(=O)N(CC(=O)NCC2COc3ccccc3O2)C1=O (configuration not stated),"inconclusive [inhibitor, partial curve]",
COCCCNC(=O)c1ccc2c(c1)nc(C)n2-c1cccc(C)c1,inactive,
CC(C)(C)OC(=O)CNC(=O)c1[nH]cnc1C(=O)NCC(=O)OCc1ccccc1,"inconclusive [inhibitor, single point]",
CCOc1ccc(-c2oc3ccc(C)cc3c(=O)c2O)cc1,"inconclusive [inhibitor, single point]",
CCOc1cc2[nH]c(=S)n(Cc3ccc(C(=O)NCCCN(CC)CC)cc3)c(=O)c2cc1OCC,"inconclusive [inhibitor, single point]",
O=C(OCc1ccccc1)c1cccc(-c2nnc(-c3ccccc3)o2)c1,"inconclusive [inhibitor, partial curve]",
COc1ccc(CNC(=S)N2CCN(Cc3ccccc3)CC2)cc1,"inconclusive [inhibitor, single point]",
CC1CN(C(=O)COC(=O)/C=C/c2ccccc2)CC(C)O1 (configuration not stated),inactive,
S=c1[nH]nc(-c2ccccc2Br)n1Cc1ccccc1,inactive,
CC(C)COC(=O)N1C[C@H](O)C[C@H]1C(=O)Nc1ccc(Cl)cc1,inactive,
CCOC(=O)c1c(C)[nH]c(C(=O)OCC(=O)Nc2cc(C)ccc2OC)c1C,active: 2.59 µM,
CCC1=NN(C(=O)Cc2ccc(OC)cc2)C(O)(C(F)(F)F)C1 (configuration not stated),active: 29.1 µM,
O=C(Nc1ccc(C(=O)OCc2cc(=O)n3nc(C4CC4)sc3n2)cc1)c1cccc(F)c1,inactive,
Cn1c(N)c(C(=O)Nc2ccc(-c3ccccc3)cc2)sc1=S,active: 23.1 µM,
COc1ccc2c(CNC3CCCCCC3)c(C(=O)O)n(Cc3ccccc3F)c2c1,"inconclusive [inhibitor, single point]",
CN(C[C@H](Cc1ccccc1)N(CCN(CCc1ccccc1)N=O)N=O)N=O,"inconclusive [inhibitor, single point]",
CCOCCCNC(=O)C(c1ccccc1)N(Cc1cccs1)C(=O)CNC(=O)c1ccccc1 (configuration not stated),"inconclusive [inhibitor, partial curve]",
CCOC(=O)c1cc(-c2ccc(OC)cc2)n(CCC(=O)NC2CCCCC2)c1C,active: 20.6 µM,
CC(CC(=O)Nc1ccc(F)c([N+](=O)[O-])c1)c1ccccc1 (configuration not stated),"inconclusive [inhibitor, partial curve, poor fit]",
COc1ccc(N2CCN(CCCNC(=O)c3cc4sccc4n3C)CC2)cc1,inactive,
CC1CCCCC1NC(=O)C1CCCN(S(=O)(=O)c2ccc(-n3cnnn3)cc2)C1 (configuration not stated),inactive,
